These results are taken from PMC12136788.

Residue numbers refer to the chain shown, from its start. The list shows a part of the results.

To fix the notation:
B1: chr17:30194318:30198530:-|three_prime_utr|ENSG00000108576|control|control|control (ssRNA)
RNA: GGGAGUUCUACAGUCCGACGAUCCCAGACUCAAGGCCUCCAGCCACUUAUUUCCAUGGAUUCCCCUGGACAUAUUCCCAUGGUAGACUGUGACACAGCUGAGCUGGCCUAUUUUGGACGUGUGAGGAUGUGGAUGGAGGUGAUCAACAGAGGAUUGAGCAUCA
B2: chr13:30280108:30280219:-|CDS|ENSG00000102781|unk|total|mutant (ssRNA)
RNA: GGGAGUUCUACAGUCCGACGAUCUAAGGUUCGGCAGGAAUUAUUGGAGGAAUAUGAACAAGUUAAAAGUAUUGUCAGCACUUCCGAAAGUUUUAAAAUUGACAAGCCUCCAGAUUUCCCUGUGUCCUGUCAAGAUGAACCAUUCAACAGAGGAUUGAGCAUCA
B3: chr5:134606522:134606623:-|3pUTR|ENSG00000152700|msi1_unk|FALSE|overlapping (ssRNA)
RNA: GGGAGUUCUACAGUCCGACGAUCAACUAUAAACCAUAUUUAAAAGCUCAUCAUGUUAAAUUUUUUAUGUACUUUUCUGGAACUAGUUUUUAAAUUUUAGAUUAUAUGUCCACCUAUCUUAAGUGUACAGUUAAUAAUUAGCUUCAACAGAGGAUUGAGCAUCA
B4: ENSG00000196526:stop:overlap|stop_codon|ENSG00000196526|stop_codon|NA|stop_codon (ssRNA)
RNA: GGGAGUUCUACAGUCCGACGAUCCCCCCUGCCGAGGGCAUGUGCUGCGGAAGGCCAAGGAAUGGGAAUUGAAGAACGGGACCUAGGGGACAGCAGCACCACUCCAGCCUCAGAGACUGCACACCCCCUUGCCUGUAUCCUCAUCAACAGAGGAUUGAGCAUCA
B5: chr11:72288215:72288316:-|3pUTR|ENSG00000162129|unk|total|mutant (ssRNA)
RNA: GGGAGUUCUACAGUCCGACGAUCACCCAGCUAAUUUUUUUUGUAUUUUCCGUAAAGACGGGGUUUCACCAUGUUUGCCAGGCCCGUCUCAAACUCCUGGUCUCAAGUGAUCCACCCACCUUGGCCUCCCAGAGUGCUGAGAUUCAACAGAGGAUUGAGCAUCA
B6: chr19:1826877:1828631:-|CDS|ENSG00000079313|control|control|control (ssRNA)
RNA: GGGAGUUCUACAGUCCGACGAUCCGACAGGAAGAGCACCAAGGCCCCGUCGGGGAAGCUAGUGGAGCGGAAAGCCCGCUCACUAGACGAGGGCGCCUCCCAGGACGCCCCCAAGCUGAAGAAGCGGGCCCUGAGCCACGCCGACAACAGAGGAUUGAGCAUCA
B7: chr14:100882551:100882663:-|CDS|ENSG00000254656|unk|total|mutant (ssRNA)
RNA: GGGAGUUCUACAGUCCGACGAUCGCUCUCCCCAGACCCUAUCAUACCUCAGAACGUGAUUCACUUCAUCCUAAAGGACAUGCCCGGGUUCUUUGUGCUUUCUUAUGGCCAGGAAGUCCUGAUCUACUCAAUGAGUCAGGAGGACAACAGAGGAUUGAGCAUCA
B8: chr3:149738563:149738664:-|3pUTR|ENSG00000114744|unk|FALSE|unique (ssRNA)
RNA: GGGAGUUCUACAGUCCGACGAUCUGGAUUAUUAUGGGUCCUUGAUAAAUUCUCAAAGCCUUUUUUUUUGUUCAUCUCUAAAAUAGGAAUAUAGGAUUACCUACCACAUUGACUCGUAAGGACUAUAUGAGACCAUGUAUAUAGCAACAGAGGAUUGAGCAUCA
B9: chr17:66805439:66805473:+|3pUTR|ENSG00000154229|msi1_unk|total|mutant (ssRNA)
RNA: GGGAGUUCUACAGUCCGACGAUCCACAAUUGUGCUCUAUUUGUGCAGGUUCUUGUUUCUAAUCCUCUUUUCUAAUUAAGUUUCCGCUGAAUCCCUUGCUUCUGUGCUUUCCCUCCCUGCACAUGGGCACUGUAUCAGACCGAUCAACAGAGGAUUGAGCAUCA
B10: ENSG00000127914:stop:overlap|stop_codon|ENSG00000127914|stop_codon|NA|stop_codon (ssRNA)
RNA: GGGAGUUCUACAGUCCGACGAUCGGCAGCACCACAGUGCGAGACCCACAGCUCCCCUUUCUUUGAAAUUCUUUCACACUCAUUAGGAUAAUCAAAGCUUCCAGUUUAGUGCAUGAGCUAAUUAUUAAGUUAGCCAAAGCUUAACAACAGAGGAUUGAGCAUCA
B11: chr16:30026608:30026843:-|CDS|ENSG00000149926|control|control|control (ssRNA)
RNA: GGGAGUUCUACAGUCCGACGAUCGGUCAAAGGGCAUGGAGGGGACGACGGAGCGGCCAGAGCCCCGGGCAGCACGUGGGCCAUAGCGCGUGGCUACCUGCACAAGGAGUUCCUCAUGGUGCUCCACCAUGCCGCCAUGGUGCUCAACAGAGGAUUGAGCAUCA
B12: chr14:75059847:75060235:-|three_prime_utr|ENSG00000119640|control|control|control (ssRNA)
RNA: GGGAGUUCUACAGUCCGACGAUCAACCACAUUAAAAAAAUAAAAAGGAUAACUGGAAAAUCCCAAAAUAUUUGGAAACCAUAUAGCACACUUACUUCUAAAAUUGUGGUAGAAUACAUAUAACAUAGAAAUUAUUGUUCUAACCAACAGAGGAUUGAGCAUCA
B13: chr1:27823432:27823533:+|3pUTR|ENSG00000117758|unk|total|mutant (ssRNA)
RNA: GGGAGUUCUACAGUCCGACGAUCUUUCAAUAAAAUUACUGUCUUGUAAUAUAAAUGUUGUCCACUUCCCUUUUCCACAGGCCCCGAACAGUUAAAGGGAACAUAAUUUGUUCCGGCUCCCACAUAAAUGUGAAUCUGGCCAACCAACAGAGGAUUGAGCAUCA
B14: chr7:56101660:56101848:-|3pUTR|ENSG00000106153|msi1|FALSE|unique (ssRNA)
RNA: GGGAGUUCUACAGUCCGACGAUCUGGAGAGAUGGAAAAUCAGCUCUCAUAACUAAGUUAAUUUAGUAUAAAAAUAGAAUUGAUAGUGAGGGUAUAAAGUGUAACCAUCAGUUAAACCUCUCCUGUCAUUCCUGGCUUCCUUGCCAACAGAGGAUUGAGCAUCA
B15: chr8:86558718:86558819:+|3pUTR|ENSG00000085719|unk|FALSE|unique (ssRNA)
RNA: GGGAGUUCUACAGUCCGACGAUCCUGUUGUUGUUUUUGUUUACUUUCAUAUGAUGAAAAUGCUGUGUUUAAGUGUUUGUCAAUAGGAAGAAUGGAAAACUGUUGGGAUGAUGUGGUUUGCAGGUUGCUGUGCCUGAUUCACAGCAACAGAGGAUUGAGCAUCA
B16: chr11:74254050:74254151:+|3pUTR|ENSG00000214517|unk|total|mutant (ssRNA)
RNA: GGGAGUUCUACAGUCCGACGAUCUUGGAAGACCCAGAGAGGCCAAGAUCCCAUCCUCCGCCACCGCGAGCGGUGGUGGUGGACCGCAUCACAAGAAACGAGCCUGAAAAUCAGGUCCAGCCGGUCCAAGCACAUGGCCUCCCACAACAGAGGAUUGAGCAUCA
B17: chr7:56101660:56101848:-|3pUTR|ENSG00000106153|msi1|total|mutant (ssRNA)
RNA: B14 RNA with U63C, A64C, U74C, A75C, U83C, A84C
B18: chr10:59791032:59791133:-|3pUTR|ENSG00000108091|msi1|FALSE|unique (ssRNA)
RNA: GGGAGUUCUACAGUCCGACGAUCUAAUCAUAAUACAGUUCUCAGAUGCAGGGAAGAAGUUUGGCAUUUAAUCAUUGAGGCUUUAGGUUUUUGAUGUGAUCAGACUGGGCCAUGUCAAACCCGGAAUUUUCACCAACAGUUCACCAACAGAGGAUUGAGCAUCA
B19: chr5:149847740:149847841:+|3pUTR|ENSG00000155846|unk|total|mutant (ssRNA)
RNA: GGGAGUUCUACAGUCCGACGAUCAUUGAACAAAGCUGCUUCUGUCUGUGAGUUUCCAUGGUGUUGACGUUCCACUGCCACAUCCGUGUCCUCGCUUCCAACGGGUUGUCCCGGGUGCACCUCGAAGUGCCGGGUCCGUCACCCCAACAGAGGAUUGAGCAUCA
B20: chr16:16142165:16142266:+|3pUTR|ENSG00000103222|msi1|FALSE|unique (ssRNA)
RNA: GGGAGUUCUACAGUCCGACGAUCAUUGAUGUGGGGUAAAUAUUAAGGAGAUGGCCUCAUGGGAAUUUGACCUUGACUAGAAAUAGAGACUGAGAGUGAGCAACCAGCUGGAAGGUACUAUGCCAGUCCUAGCAGAAAAAUGUGCAACAGAGGAUUGAGCAUCA
B21: chr15:40903593:40903694:+|3pUTR|ENSG00000104142|msi1|FALSE|unique (ssRNA)
RNA: GGGAGUUCUACAGUCCGACGAUCCAGUAGAGGCCCUUCACCUGGAGAAGUCAGAAAUCUGACCCAAUUCCACCCCCUGCCUCUAGCACCUCUUCUGUCCCUGUCAUUCCCCACACACGUCCUGUUCACCUCGAGAGAGAGAGACAACAGAGGAUUGAGCAUCA
B22: chr10:126015758:126015859:-|3pUTR|ENSG00000148848|msi1|FALSE|unique (ssRNA)
RNA: GGGAGUUCUACAGUCCGACGAUCAAAUACUCAGAUAAGGUAAAAUGCCAUGAUGCCUCUGUCUUCUGGACUGGUUUUCACAUUAGAAGACAAUUGACAACAGUUACAUAAUUCACUCUGAGUGUUUUAUGAGAAAGCCUUCUUCAACAGAGGAUUGAGCAUCA

For the test, the target named is MSI1 full-length (mouse, UniProt Q61474 1-362). Kind of test: nsRBNS (natural sequence RNA bind-n-seq); RBNS binding buffer (assumed for nsRBNS): 25 mM Tris pH 7.5, 150 mM KCl, 3 mM MgCl2, 0.01% Triton X-100, 500 ug/ml BSA, 20 U/ml SUPERase-In, 4 C; UNK is unkempt and MSI1 is Musashi-1; names of the RNAs are library labels; protein concentration not given here; high values mean tight binding.
UniProt Q61474, sequence (Q61474 whole entry): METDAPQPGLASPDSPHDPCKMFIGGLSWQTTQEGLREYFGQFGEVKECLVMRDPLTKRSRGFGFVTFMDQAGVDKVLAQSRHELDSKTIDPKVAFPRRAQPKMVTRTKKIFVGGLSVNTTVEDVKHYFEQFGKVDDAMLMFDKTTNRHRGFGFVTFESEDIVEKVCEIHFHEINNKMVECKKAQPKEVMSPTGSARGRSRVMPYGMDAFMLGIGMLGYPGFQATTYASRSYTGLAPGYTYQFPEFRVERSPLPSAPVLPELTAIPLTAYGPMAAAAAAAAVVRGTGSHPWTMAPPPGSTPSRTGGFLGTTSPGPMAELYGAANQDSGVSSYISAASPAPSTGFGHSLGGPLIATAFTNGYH
Turning to B1, the binding signal was 0.409 enrichment R.
On to B2, for which the binding signal stood at 0.268 enrichment R.
Under B3 stands 13.2 enrichment R.
As for B4, the figure is 1.09 enrichment R; as for B5, 0.928 enrichment R.
As for B6, the figure is 0.377 enrichment R.
Consider B7, for which the binding signal worked out at 0.418 enrichment R.
Under B8 stands 0.662 enrichment R; under B9, 0.976 enrichment R; under B10, 0.53 enrichment R.
Under B11 stands 0.5 enrichment R; under B12, 5.32 enrichment R; under B13, 0.336 enrichment R.
As for B14, the figure is 5.86 enrichment R.
The molecule B15 yielded a binding signal of 0.252 enrichment R.
Turning to B16, the binding signal is 0.249 enrichment R.
Under B17 stands 0.218 enrichment R.
As for B18, the binding signal was 0.504 enrichment R.
Molecule B19 displayed a binding signal of 0.513 enrichment R.
Under B20 stands 1.02 enrichment R; under B21, 0.581 enrichment R.
In turn, B22 gave a binding signal of 0.241 enrichment R.
